Among the data in PubChem BioAssay (NCI) are GI50 and TGI values, retold here.

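Method: 48-hour compound exposure of cells in 96-well plates, five concentrations, linear interpolation of endpoints. GI50 is the concentration that inhibits growth by half. At the TGI there is no net growth.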

The test deals with NCI-H322M lung. Put plainly: NCI-60 cell line screen, 48 h.

Take `CC(=O)Oc1ccccc1C(=O)[Se]C(=NC(C)C)NC(C)C`: the GI50 is 0.575 µM and the TGI is 1.98 µM.

As for `COc1ccc2c(c1)c(-c1cc(N)n3nc(-c4cn(C)c5ccccc45)cc3n1)cn2C`, the GI50 is 1.64 µM and the TGI was found to be 3.19 µM.

With `O=C1N/C(=N\c2nccs2)S/C1=C\c1ccc([N+](=O)[O-])cc1`, the GI50 was 9.69 µM and the TGI was 81.7 µM.
